# Test results as given in PubChem BioAssay AID485294 (National Center for Advancing Translational Sciences (NCATS), 2010).
# Screen size: about 370,000 compounds; about 150 (0.041%) were called active. This list was built around the results that the source calls inconclusive (neither active nor inactive); the mix of calls is not that of the screen. The call rests on the fitted dose curve; in most records, active means well fitted inhibition curve with a large enough effect; inconclusive means small, poorly fitted or top-dose-only effect; inactive means flat fitted curve, though single readings scatter. No potency is given beside an inconclusive call; the fits are too rough.
# Biological target: Beta-lactamase (Escherichia coli (strain K12)) (UniProt P00811)
# Chain of UniProt P00811 (P00811 whole entry, looked up): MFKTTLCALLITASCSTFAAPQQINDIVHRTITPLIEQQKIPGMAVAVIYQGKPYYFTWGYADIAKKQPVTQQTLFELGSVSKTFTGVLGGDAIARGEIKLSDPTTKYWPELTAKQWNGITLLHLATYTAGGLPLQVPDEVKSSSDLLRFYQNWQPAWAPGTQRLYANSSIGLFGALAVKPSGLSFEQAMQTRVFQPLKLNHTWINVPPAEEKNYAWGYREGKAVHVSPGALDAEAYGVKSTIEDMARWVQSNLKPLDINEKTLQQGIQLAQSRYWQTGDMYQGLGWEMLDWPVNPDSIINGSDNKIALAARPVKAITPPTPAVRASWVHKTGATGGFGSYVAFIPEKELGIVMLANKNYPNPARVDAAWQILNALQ
# Test: qHTS Inhibitors of AmpC Beta-Lactamase (assay with detergent); further: nearly all actives have a fitted effect of over 25% in size
# Settings: AmpC hydrolysis of nitrocefin, absorbance 480 nm, 0.01% Triton; series mostly up to 114 µM
# In short: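 AmpC (5.3 nM in the dispensed reagent) in 20 mM phosphate pH 7.0 with 0.01% (detergent screen) or 0.0001% Triton X-100 was preincubated with compounds for 15 min at room temperature. Nitrocefin was then added from an 800 uM solution, and hydrolysis was followed at 480 nm.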
# Potency means the concentration at half of the fitted maximal effect; tags describe the fitted curve by direction and shape.
row,Structure (SMILES),Potency
1,Clc1ccc(-c2nc(N3CCOCC3)nc3ccccc23)cc1,"inconclusive [inhibitor, full curve, poor fit]"
2,Cc1c(Cl)c([N+](=O)[O-])nn1Cc1ccc(C(=O)Nc2ccc(Cl)cn2)o1,"inconclusive [inhibitor, full curve, poor fit]"
3,COc1ccc(C2C(C(=O)c3cc4cccc(OC)c4o3)=C(O)C(=O)N2CCCN(C)C)cc1OC (configuration not stated),"inconclusive [inhibitor, full curve, poor fit]"
4,CC(OC(=O)c1cccc(S(=O)(=O)N2CCCCC2)c1)C(=O)NCC1CCCCC1 (configuration not stated),"inconclusive [inhibitor, partial curve]"
5,Cc1ccsc1C1NC(=O)c2c(sc3c2CCN(C)C3)N1 (configuration not stated),"inconclusive [inhibitor, full curve, poor fit]"
6,COc1ccc(NC(=O)c2c(NCc3cccs3)sc3c2CCCCC3)c(OC)c1,inactive
7,CCOC(=O)C1CCN(C(=O)c2sc3nc(C)nc(N4CCC(C)CC4)c3c2C)CC1,"inconclusive [inhibitor, full curve, poor fit]"
8,O=C(NCc1ccccc1)Nc1cccn(Cc2ccccc2F)c1=O,"inconclusive [inhibitor, full curve, poor fit]"
9,C=CCOC(=O)/C(=C/c1cccc2ccccc12)NC(=O)c1ccccc1,"inconclusive [inhibitor, full curve]"
10,CCOC(=O)N1CCC(NC(=O)c2ccc3c(c2)N(Cc2ccc(Cl)cc2)C(=O)c2ccccc2S3(=O)=O)CC1,inactive
11,Clc1ccc(OCCN2CCCCC2)c(Cl)c1,"inconclusive [inhibitor, full curve, poor fit]"
12,CN1/C(=C\C(=O)CN2C(=O)NC3(CCCCCC3)C2=O)C(C)(C)c2ccccc21,"inconclusive [inhibitor, partial curve, poor fit]"
13,CCC1(c2ccc(F)cc2)NC(=O)N(CC(=O)NCC(=O)Nc2cccc(C)c2C)C1=O (configuration not stated),inactive
14,Cc1ccc(S(=O)(=O)N2CCN(Cc3nnc(-c4c(-c5ccccc5)noc4C)o3)CC2)cc1,inactive
15,CC1CCN(C(=O)CSc2nc3ccccc3s2)CC1,"inconclusive [inhibitor, full curve, poor fit]"
16,Cc1ccc(SC[C@H](C)CN2CC[C@H](C(C)(C)C)CCC2=O)cc1,"inconclusive [inhibitor, full curve, poor fit]"
17,CCn1c(N)c(C(=O)NCc2ccc3c(c2)OCO3)sc1=S,"inconclusive [inhibitor, full curve, poor fit]"
18,Cn1cc(Br)c(C(=O)NNC(=O)c2ccccc2)n1,"inconclusive [inhibitor, partial curve]"
19,Cc1ccc(C)c(NC(=O)c2cc(=O)c3ccccc3o2)c1,inactive
20,Cc1ccc(NC(=O)c2ccc(N(Cc3ccccc3)S(C)(=O)=O)cc2)cc1,inactive
21,Cn1c(=O)c2c(nc(NCc3ccccc3)n2C)n(C)c1=O,inactive

row,Structure (SMILES),Potency
1,COc1ccc(N(CC(=O)NCCSC(C)(C)C)S(C)(=O)=O)c(OC)c1,"inconclusive [inhibitor, full curve, poor fit]"
2,Oc1ccccc1-c1nnc(COc2ccccc2)o1,"inconclusive [inhibitor, full curve, poor fit]"
3,O=[N+]([O-])c1ccn(-c2nc(-c3ccccc3)cc(C(F)(F)F)n2)n1,"inconclusive [inhibitor, single point]"
4,Cc1cc(C)cc(C(=O)NCC(=O)N(C)CCOc2ccccc2)c1,"inconclusive [inhibitor, partial curve, poor fit]"
5,CCCC(=O)Nc1nc2ccc3nc(C)sc3c2s1,"inconclusive [inhibitor, full curve, poor fit]"
6,COc1ccccc1NCC(=O)c1ccc(C)c(C)c1,"inconclusive [inhibitor, full curve, poor fit]"
7,O=C1NC(=S)N(Cc2ccco2)C(=O)/C1=C\c1cccs1,active: 44.7 µM
8,Cc1ccc(S(=O)(=O)c2nc(C)c3c(n2)CCC3)cc1,inactive
9,CCOC(=O)c1ccc(-c2ccc(/C=C(\C#N)C(=O)NCc3cccs3)o2)cc1,"inconclusive [inhibitor, partial curve]"
10,O=c1n(-c2ccccc2)c(=O)n2n1CCCC2,"inconclusive [inhibitor, partial curve]"
11,CN(C)c1ccc(C(=O)Nc2ccc(-c3nc4ccccc4o3)cc2)cc1,inactive
12,CC12CCC(=O)N1C(C(=O)Nc1ccc(Cl)c(S(=O)(=O)N3CCCCC3)c1)CS2 (configuration not stated),"inconclusive [inhibitor, full curve, poor fit]"
13,CCCCn1nc2cc(C(=O)NCc3ccc(OC)cc3)ccc2c1OCC,"inconclusive [inhibitor, partial curve]"
14,NC(=O)CCC(NS(=O)(=O)c1ccc(Cl)cc1)C(=O)NCc1ccccc1Cl (configuration not stated),"inconclusive [inhibitor, full curve]"
15,COc1ccc(N2Cc3cccc(C(=O)Nc4cccc(F)c4)c3C2=O)cc1,inactive
16,Cc1[nH]c2ccccc2c1C(c1ccncc1)N1CCN(c2ccccc2F)CC1 (configuration not stated),"inconclusive [inhibitor, full curve, poor fit]"
17,COc1ccc(NC(=O)CCCn2c(=O)c3sccc3n(Cc3ccccc3C)c2=O)cc1,"inconclusive [inhibitor, partial curve, poor fit]"
18,COc1ccc(CCNc2ccncn2)cc1OC,"inconclusive [inhibitor, partial curve, poor fit]"
19,COc1ccc(C2CC(=O)Oc3c(C(CCN4CCN(c5ccccc5)CC4)c4ccc(N(C)C)cc4)c(OC)cc(OC)c32)cc1 (configuration not stated),inactive
20,COc1ccc(OC)c(CNC(=O)C2CCN(S(=O)(=O)c3ccc4[nH]c(=O)oc4c3)CC2)c1,inactive
21,Cc1cc(-c2ccco2)n(CC(=O)NCc2ccccc2)n1,"inconclusive [inhibitor, partial curve, poor fit]"
